From PubChem BioAssay AID1508624 (National Center for Advancing Translational Sciences (NCATS), 2021)
Among all 48,000 compounds or so, about 120 (0.25%) were called active. Roughly 4% stayed inconclusive and do not appear here. Calls follow the shape of the dose curve; as a rule, active = well fitted activation curve with a large enough effect; inconclusive = small, poorly fitted or top-dose-only effect, or another doubt; inactive = no such curve, though single readings can be large or run the other way. The list shows a part of the results.

Assay: Primary qHTS for Identification of Small Molecule Activators of Huntingtin-Antisense Promoter Activity; also: nearly all actives have a fitted effect of over 55% in size
Conditions: HEK293 HTT-AS promoter firefly luciferase reporter, 24 h; series mostly up to 57.5 µM; activity change, positive = activation: at the top concentration
Method in brief: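 Luminescence was read after Dual-Glo reagent and a 10 min room-temperature incubation. Values were normalized to vehicle (0% activity) and zero RLU (-100% activity). Reporter HEK293 cells had been exposed to compounds (up to 57.5 uM final) for 24 h.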

Row | SMILES | activity change, positive = activation
1 | CC(C)CCNC(=O)C1CCN(C(=O)c2cc3sccc3n2Cc2ccc(Cl)cc2)CC1 | inactive: -62.1%
2 | Cc1ccc(CS(=O)(=O)c2ncc(Cl)c(C(=O)Nc3nnc(C(C)C)s3)n2)cc1 | inactive: -91.5%
3 | COc1cc(CN(C(=O)c2ccccc2F)C2CCS(=O)(=O)C2)cc(OC)c1OC (stereo not drawn) | inactive: 12.6%
4 | Cc1cccc(N2CCN(C(=O)Cn3c(-c4cccs4)cc4ccccc43)CC2)c1C | inactive: -23.7%
5 | Cc1ccc2c(CC(=O)Nc3ccc(S(=O)(=O)N4CCCCC4)cc3)coc2c1C | inactive: -33.7%
6 | CCCS(=O)(=O)N1CC(=O)N(c2ccc(C)c(Cl)c2)C(C)(C(=O)NC2CCCCCC2)C1 (stereo not drawn) | inactive: -23.9%
7 | CCCCNC(=O)CCCN1C(=O)c2ccccc2Sc2ncccc21 | inactive: -14.2%
8 | Oc1c(C(c2ccc(F)cc2)N2CCN(Cc3ccccc3)CC2)sc2nc(-c3ccco3)nn12 (stereo not drawn) | inactive: -21.5%
9 | CN1C(=O)C2(c3ccccc31)N(c1cccc(C(F)(F)F)c1)C(=O)CS2(=O)=O (stereo not drawn) | inactive: -21.2%
10 | COc1ccc(Nc2nn3c(=O)c4cc5c(cc4nc3s2)OCO5)c(OC)c1 | inactive: -11.9%
11 | Cc1cccc(N(C)S(=O)(=O)c2cc(-c3cnc(C4CC4)o3)ccc2C)c1 | inactive: -45.5%
12 | O=C(CCNS(=O)(=O)c1ccc2c(c1)CCN2C(=O)C1CC1)N1CCN(c2cccc(Cl)c2)CC1 | inactive: -46.6%
13 | CCOc1ccc(/C=C/C(=O)Nc2ccc3nc(N(CC)CC)cc(C)c3c2)cc1OC | inactive: -15.1%
14 | CCc1ccc(C2c3c(-c4ccccc4O)n[nH]c3C(=O)N2Cc2cccnc2)cc1 (stereo not drawn) | inactive: -37.7%
15 | CCC(=O)N1c2ccc(S(=O)(=O)CCC(=O)Nc3ccc(OC)cc3OC)cc2CC1C (stereo not drawn) | inactive: -0.969%
16 | O=C(NCC1CCN(Cc2ccccc2F)CC1)Nc1ccc(F)c(Cl)c1 | inactive: -16%
17 | COc1ccc(-c2nc3sc(CCNS(=O)(=O)c4ccccc4)c(C)n3n2)cc1 | inactive: -11.6%
18 | CC(C)c1ccc(N(CC(=O)O)S(=O)(=O)c2ccc3[nH]c(=O)c(=O)[nH]c3c2)cc1 | inactive: -1.04%
19 | COc1ccc(Br)cc1CNC(=O)CN1C(=O)c2cccnc2Oc2ccc(C)cc21 | inactive: -25.3%
20 | Cc1ccc2oc(C(=O)Nc3ccc(S(=O)(=O)Nc4nccc(C)n4)cc3)cc(=O)c2c1 | inactive: -2.04% [at 11.5 µM, percent change from vehicle, -100% = no light]
21 | Cc1ccc2ncc3c(-c4ccc(F)cc4)nn(CC(=O)Nc4ccccc4C)c3c2c1 | inactive: -2.14%
22 | Cc1ccc(S(=O)(=O)Cc2nc(-c3ccc(C(=O)NCCCOC(C)C)cc3)oc2C)cc1 | inactive: 13%
23 | CCCCCCCN(CC)CCCC(O)c1ccc(NS(C)(=O)=O)cc1 (stereo not drawn) | inactive: -13.7%
24 | CCOc1ccc(C(=O)Nc2cc3c(cc2N2CCCC2)n(C)c(=O)c(=O)n3C)cc1OCC | inactive: -10.3%

Row | SMILES | activity change, positive = activation
25 | CSc1ccc(CCNC(=O)CCCn2c(=O)c3cccn3c3ccccc32)cc1 | inactive: -28.2%
26 | CSc1ncc2c(n1)-c1ccccc1N(Cc1ccccc1)S2(=O)=O | inactive: -10.7%
27 | Cc1ccc2[nH]c3c(=O)n(CC(=O)Nc4ccc(Br)cc4C)ncc3c2c1 | inactive: -9.08%
28 | O=C1c2[nH]nc(-c3ccc(F)cc3)c2C(c2ccccc2F)N1c1ccccc1 (stereo not drawn) | inactive: -21.2%
29 | COc1ccc(NC(=O)C2CCCN(S(=O)(=O)c3c(C)[nH]c(=O)[nH]c3=O)C2)c(OC)c1 (stereo not drawn) | inactive: -9.56%
30 | O=C(NCc1ccc(F)cc1)C(=O)NCC(c1ccc2c(c1)OCO2)N1CCOCC1 (stereo not drawn) | inactive: -8.52%
31 | Cc1cccc(-c2nc3nc(C)cc(NC(C)c4ccccc4)n3n2)c1 (stereo not drawn) | inactive: 8.82%
32 | COc1ccc(C(=O)N(Cc2ccco2)Cc2ccc(C)o2)cc1 | inactive: -9.9%
33 | COc1cc(NS(=O)(=O)c2ccc(NC(=O)c3ccc(Cl)cc3Cl)cc2)nc(OC)n1 | inactive: -4.95%
34 | CNC(=O)c1c(NC(=O)/C=C/c2ccccc2)sc2c1CCC2 | inactive: 5.14%
35 | Cc1ccc2nc(-c3ccc(NC(=O)COc4ccc(Br)cc4Br)cc3)sc2c1 | inactive: -0.0451%
36 | CCOc1ccc(NC(=O)Cn2nnc(-c3nc(-c4ccncc4)no3)c2N)cc1 | inactive: -3.84%
37 | Cc1ccccc1NC(=O)/C(C#N)=C/c1ccc(Cl)cc1Cl | inactive: -6.78%
38 | CCc1ccc(NCc2cc3cc4c(cc3n(CC(=O)Nc3ccccc3C)c2=O)OCCO4)cc1 | inactive: -8.56%
39 | CCOC(=O)c1ccc(NC(=O)CC(=O)Nc2ccc3nc4n(c(=O)c3c2)CCCCC4)cc1 | inactive: -24.2%
40 | Cc1nn2c(C)c(C(=O)NCCc3ccccc3)cnc2c1-c1ccccc1 | inactive: 3.31%
41 | COc1ccc(Cl)cc1NC(=O)c1cnc2sc(N3CCOCC3)nn2c1=O | inactive: -17.2%
42 | Cc1ccc(CNC(=O)c2cnc3c(-c4ccc(F)cc4)c(C)nn3c2C)o1 | inactive: -2.96%
43 | CN1CCN(CCNC(=O)c2cnn(-c3ccc(Cl)cc3)c2C2CCN(C(=O)OC(C)(C)C)CC2)CC1 | inactive: -10.3%
44 | CCN(C(=O)C1CCN(S(=O)(=O)c2c(C)noc2/C=C/c2ccc(C)cc2)CC1)c1cccc(C)c1 | inactive: -7.3%
45 | CCOc1ccc(-c2nonc2NC(=O)c2oc3ccc(CC)cc3c2C)cc1 | inactive: -11.3%
46 | CCC(=O)N1CCc2cc(S(=O)(=O)NC(Cc3ccccc3)C(=O)O)ccc21 (stereo not drawn) | inactive: -1.49%
47 | COc1ccc(NC(=O)CSc2nc3ccccc3c(=O)n2CCC(=O)NC2CCCCC2)c(OC)c1 | inactive: 0.0642%
48 | O=C(CCCCCn1c(=O)c2sccc2n(Cc2ccccc2Cl)c1=O)NCc1ccc2c(c1)OCO2 | inactive: -13.1%

Row | SMILES | activity change, positive = activation
49 | Cc1ccc(S(=O)(=O)Nc2ccc3nc(-c4cccc(Cl)c4)oc3c2)cc1 | inactive: -12.6%
50 | COc1ccc(CCNC(=O)C(C)n2nc(C)c3sc4ccccc4c3c2=O)c(OC)c1 (stereo not drawn) | inactive: -3.47%
51 | Fc1ccc(Nc2nc3ccccc3n3cnnc23)c(F)c1 | inactive: -0.388%
52 | COc1ccc(NC(=O)c2nc(-c3ccc(C)cc3)n3c2CCCCC3)cc1 | inactive: -24.3%
53 | COc1cccc(C(=O)N(Cc2nc(-c3ccc(Cl)cc3)no2)C(C)C)c1OC | inactive: -34.2%
54 | CCSc1nc2ccccc2c(OCc2ccccc2Cl)c1C(=O)OC | inactive: -4.56%
55 | COc1ccc(Oc2nc3c(c(=O)n(Cc4ccc(Br)cc4)c(=O)n3C)n2C)cc1 | inactive: 12.8% [at 11.5 µM, percent change from vehicle, -100% = no light]
56 | O=C(c1ccc(F)cc1)n1nc(-c2cccnc2)nc1NCc1ccccc1 | inactive: 8.73%
57 | COc1ccc(-n2ccnc(NCCc3ccccc3)c2=O)cc1OC | inactive: -24.6%
58 | Cc1nc2nc(CNC(=O)c3cccc(F)c3)nn2c(C)c1CCC(=O)Nc1cccc(Cl)c1 | inactive: -7.8%
59 | Cc1nn(C(C)C(=O)Nc2ccccc2C(F)(F)F)c(=O)c2c1sc1ccccc12 (stereo not drawn) | inactive: -11.9%
60 | CC(C)(C)c1ccc(C(=O)Nc2c(C(=O)c3ccc(F)cc3)oc3ccccc23)cc1 | inactive: 1.17%
61 | COc1ccccc1CNC(=O)COCc1cc(-c2cccs2)on1 | inactive: -6.1%
62 | Cc1ccc(N(CC(C)C)S(=O)(=O)c2nnc(NC(=O)C(C)C)s2)cc1 | inactive: -8.67%
63 | CCOC(=O)C1CCN(c2ncnc3c2c(-c2ccccc2)cn3-c2ccc(Cl)cc2)CC1 | inactive: -11.5%
64 | CCOc1ccccc1CNS(=O)(=O)c1cc(-c2onc(C)c2C)ccc1OC | inactive: -26.7%
65 | COc1cnc(NS(=O)(=O)c2ccc(N)cc2)nc1 | inactive
66 | CCOC(=O)c1c(C)[nH]c(C)c1S(=O)(=O)NCC(=O)NCc1ccccc1C | inactive: -0.0917%
67 | CCC(=O)N1c2ccccc2CC1C(=O)N1CCN(c2ccccc2F)CC1 (stereo not drawn) | inactive: -5.95%
68 | Cc1ccc(NC(=O)Cn2c(=O)n(CCCCC(=O)NCc3ccc4c(c3)OCO4)c(=O)c3ccccc32)cc1 | inactive: -33.2%
69 | Clc1ccccc1CSc1nc(NCCc2ccccc2)c2ccccc2n1 | inactive: -11.1%
70 | CCOc1ccccc1Oc1nc(C)nc2c1oc1ccccc12 | inactive: -19.7%
71 | N#Cc1c(C(F)(F)F)cc(-c2cccs2)nc1SCc1ccccc1F | inactive: -25.3%
72 | CCOc1ccccc1Nc1sc(C(=O)c2ccc(Cl)cc2)c(N)c1S(=O)(=O)c1ccccc1 | inactive: 0%

Row | SMILES | activity change, positive = activation
73 | O=C(O)CCn1c2c(c3ccccc31)C[C@H](NS(=O)(=O)c1ccc(F)cc1)CC2 | inactive
74 | O=C(CSc1ncc2c(n1)-c1ccccc1N(Cc1ccc(Cl)cc1)S2(=O)=O)c1ccccc1 | inactive: 5.59%
75 | CCN(Cc1ccccc1)C(=O)Cn1ncc2c(=O)oc3ccc(C)cc3c21 | inactive: -3.99%
76 | Cc1cccc(N2CCN(C(=O)c3ccc4c(c3)N(Cc3cccc(Cl)c3)C(=O)c3ccccc3S4(=O)=O)CC2)c1C | inactive: -3.59%
77 | CCOc1ccc(NC(=O)CCc2nnc3n(C)c(=O)c4sccc4n23)cc1 | inactive: -10.8%
78 | O=C(O)CCC(=O)Nc1ccc(S(=O)(=O)Nc2nccs2)cc1 | inactive: -15%
79 | Cc1cccc(C(=O)NNc2ncnc3c2cnn3-c2ccc(C)c(Cl)c2)c1 | inactive: -33.2%
80 | CC(CNC(=O)CCCn1c(=O)c2cccn2c2ccc(F)cc21)c1ccccc1 (stereo not drawn) | inactive: -22.8%
81 | Cc1ccc(-c2nc(CS(=O)CC(=O)NCCc3ccc(Cl)cc3)c(C)o2)cc1 (stereo not drawn) | inactive: -20.4%
82 | COc1cc(NC(=O)C2Cc3ccccc3N2C(=O)c2ccccc2)cc(OC)c1 (stereo not drawn) | inactive: -24.9%
83 | CCOc1ccc(-n2nc(CO)c(C(=O)NCC(C)O)n2)cc1 (stereo not drawn) | inactive: 3.29%
84 | COc1ccc(OCCn2nnc3sc4c(c3c2=O)CCCC4)cc1 | inactive: 7.25%
85 | COc1ccc(N2CCN(c3ncnc4c3nnn4C)CC2)cc1 | inactive: -4.33%
86 | COC(=O)c1cc2sccc2n1CC(=O)Nc1cc(Cl)ccc1OC | inactive: -85%
87 | CCOc1ccc(-n2c(=O)c3c(C)c(C(=O)N(C)C)sc3n(Cc3cc(C)ccc3C)c2=O)cc1 | inactive: -6.69%
88 | Cc1ccc(S(=O)(=O)C(CNC(=O)C(=O)NCc2ccc(Cl)cc2)c2ccco2)cc1 (stereo not drawn) | inactive: -20.2%
89 | CN(C(=O)CSc1nc2ccccc2n1Cc1ccccc1C#N)c1ccccc1 | inactive: -32%
90 | CCOc1ccc(-c2nc3cc(NC(=O)COc4cccc(C)c4)ccc3o2)cc1 | inactive: -18.2%
91 | O=c1c2sc3ccccc3c2n(Cc2ccc(F)cc2Cl)c(=O)n1Cc1ccccc1 | inactive: -12.4%
92 | COC(=O)c1ccc2nc(C)cc(Nc3cccc(Cl)c3C)c2c1 | inactive: -35.5%
93 | Cc1ccc2oc(-c3ccc(C)c(NC(=O)c4ccc(-c5ccccc5[N+](=O)[O-])o4)c3)nc2c1 | inactive: 18.7%
